In PubChem BioAssay AID624296 (National Center for Advancing Translational Sciences (NCATS), 2012):
The campaign covered roughly 350,000 compounds. About 9,900 (2.8%) were called active. The inconclusive results got no clear call from the source; some entries with a clear call stand among them for comparison. Calls follow the shape of the dose curve; as a rule, active = well fitted activation curve with a large enough effect; inconclusive = small, poorly fitted or top-dose-only effect; inactive = no such curve, though single readings can be large or run the other way. Potencies of inconclusive entries are left out as doubtful fits.
Potency is read from the fitted curve at half-maximal effect; tags tell the direction and shape of the fitted curve.

Experiment: A quantitative high throughput screen for small molecules that induce DNA re-replication in MCF 10a normal breast cells. Also: nearly all actives have a fitted effect of over 50% in size. As to activity, positive = re-replication: % of control where 0% means no effect.
Settings: MCF 10A DNA re-replication, Hoechst nuclear intensity, 48 h; activity, positive = re-replication: at 46.1 µM (top of the series)
From the text: H Molecular Libraries Probe Production Network [MLPCN]
NIH Chemical Genomics Center [NCGC]
Assay Provider: Melvin DePamphilis, NICHD, NIH
Eukaryotic cells normally restrict genome duplication to once per cell division. When this process is aberrant, DNA re-replication occurs when cells reinitiate DNA replication before the first round of replication is complete. DNA re-replication induces the DNA damage response, arrests cell proliferation, and triggers apoptosis. The cell cycle components cyclin A, Cdt-1, Cdc6 and geminin are critical regulators of this process and their misregulation results in DNA re-replication in normal and cancer cells. To identify compounds that induce re-replication in normal cells, an image-based assay was used to measure DNA content of nuclei, as detected by the fluorescent DNA binding dye, Hoechst. Cell nuclei were imaged by a fluorescence scanning plate imager and compounds that induce DNA re-replication were identified by the increase of nuclei with elevated fluorescence intensity
For screening, 250 cells in 5 uL/well were dispensed into black clear 1536-well plates (Aurora) using a solenoid-based dispenser. Following transfer of 23 nL compound or DMSO vehicle by a pin tool, the plates were incubated 48 hr at 37 C and 5% CO2. After addition of 1 uL/well Hoescht stain, the plates were incubated 40 min at 37 C, 5% CO2 and total intensity of fluorescent objects (nuclei) were enumerated by an Acumen Explorer Ex3 (TTP LabTech) fluorescence scanning plate imager (405 nm excitation, 500-530 nm emission).
Keywords: NIH Roadmap, MLPCN, MLI, MLSMR, qHTS, NCGC, DNA replication, cancer
For `CC(=O)Nc1cccc(NS(=O)(=O)c2cc3c4c(c2)CCN4C(=O)CC3)c1`, the “activity, positive = re-replication” value was inactive: -1.77%. For `CC(OC(=O)/C=C/c1ccc2ccccc2n1)C(=O)N(C)c1ccccc1` (configuration not stated), the “activity, positive = re-replication” value was inactive: -0.765%. For `CCOC(=O)c1c(C)[nH]c(C(=O)COC(=O)c2cnccn2)c1C`, the Potency was inconclusive [activator, single point]. In the case of `Cc1onc(-c2ccccc2Cl)c1C(=O)Oc1cccc2cccnc12`, the Potency is reported as inconclusive [activator, single point]. For `CCc1cc(=O)oc2c3c(cc(OCC(=O)NCc4ccccn4)c12)OC(C)(C)CC3`, the Potency was inconclusive [activator, partial curve, poor fit]. With `O=C(CC(c1ccccc1)c1ccccc1O)NCCN1CCOCC1` (configuration not stated) the Potency was inconclusive [activator, single point]. With `O=c1[nH]c(-c2ccccn2)nc2ccccc12` the Potency was inconclusive [activator, single point]. In the case of `Cc1ccc(S(=O)(=O)c2c(N)n(CCN3CCOCC3)c3nc4ccccc4nc23)cc1C`, the Potency is reported as inconclusive [activator, full curve, poor fit]. In the case of `COc1ccc(Oc2c(-c3ccc(O)cc3O)n[nH]c2C)cc1`, the Potency is reported as inconclusive [activator, partial curve, poor fit]. For `CC(C)Oc1ccccc1-c1cc(C(=O)N/N=C/c2cccnc2)c2ccccc2n1`, the Potency was inconclusive [activator, partial curve, poor fit]. In the case of `CCOc1ccc(N=Nc2cc(C(C)C)ccc2O)cc1`, the Potency is reported as inconclusive [activator, partial curve, poor fit]. With `Cc1ccc(S(=O)(=O)Nc2nc3ccccc3nc2NCc2ccco2)cc1C` the Potency was inconclusive [activator, single point]. For `O=C1c2ccccc2C2(c3ccccc3)NCCN12` (configuration not stated), the “activity, positive = re-replication” value was inactive: 0.184%. In the case of `COc1cc(CNCCc2ccc(S(N)(=O)=O)cc2)ccc1OCC(=O)NC1CCCCC1`, the Potency is reported as inconclusive [activator, partial curve, poor fit]. In the case of `O=C(CSc1n[nH]c(-c2ccncc2)n1)Nc1ccccc1C(F)(F)F`, the “activity, positive = re-replication” value is reported as inactive: 4.6%. With `C/C(=N/NC(=O)c1ccccn1)c1ccco1` the “activity, positive = re-replication” value was inactive: 5.24%. In the case of `CC(=O)c1c(C)oc2ccc(N(C(C)=O)S(=O)(=O)c3ccc(Cl)c([N+](=O)[O-])c3)cc12`, the Potency is reported as active: 1.84 µM. With `CCOC(=O)c1cnc2ccccc2c1NCCc1ccc(OC)c(OC)c1` the Potency was inconclusive [activator, partial curve, poor fit]. In the case of `O=C1C=CC2(C=C1)O[C@H](Cc1ccccc1)[C@@H](Cc1ccccc1)O2`, the Potency is reported as inconclusive [activator, full curve, poor fit]. With `O=[N+]([O-])c1cc(-c2ccccc2)cc([N+](=O)[O-])c1O` the Potency was inconclusive [activator, partial curve, poor fit]. In the case of `O=C(NN1CCOCC1)c1cnn2c(C(F)F)cc(-c3ccccc3)nc12`, the Potency is reported as inconclusive [activator, single point]. With `Cc1cc(Cl)c2oc(C(=O)N(C)Cc3ccon3)c(C)c2c1` the Potency was inconclusive [activator, single point]. In the case of `Cc1cc(C(=O)NN=C2C3CC4CC(C3)CC2C4)c2ccccc2n1`, the Potency is reported as inconclusive [activator, single point]. With `Cc1cc(O)c(C(=O)/C=C/c2c(F)c(F)c(F)c(F)c2F)c(=O)o1` the Potency was inconclusive [activator, single point]. With `O=[N+]([O-])c1ccc2oc(C(O)c3cccc(Cl)c3)cc2c1` (configuration not stated) the Potency was inconclusive [activator, single point]. For `COc1ccc(-c2sc3cc4c(cc3c2C#CC2(O)CCCCC2)OCO4)cc1`, the Potency was active: 23.1 µM. For `Cc1cccc(OCc2nc(-c3ccccn3)n[nH]2)c1`, the “activity, positive = re-replication” value was inactive: 28.2%. In the case of `Nc1c(C(=O)Nc2ccccc2)sc2nc3c(c(-c4ccco4)c12)CCCC3`, the Potency is reported as inconclusive [activator, partial curve, poor fit]. With `Oc1ccc2ccccc2c1C1Nc2cccc3cccc(c23)N1` the “activity, positive = re-replication” value was inactive: 13.8%. In the case of `Cc1ccc(Nc2nc(N)c3ccccc3n2)cc1Cl`, the “activity, positive = re-replication” value is reported as inactive: 2.32%. For `CCN1CCN(C(=O)/C=C/c2ccc(OC)cc2)CC1`, the Potency was inconclusive [activator, single point]. In the case of `COc1ccc(NC(=O)c2ccccc2NC(=O)CSc2ccc(C)cc2)cc1`, the Potency is reported as inconclusive [activator, single point]. For `CCc1cc(C(=O)NNC(=S)Nc2cccc(C)c2)cs1`, the Potency was inconclusive [activator, partial curve, poor fit]. In the case of `COc1ccccc1CCC(=O)NC1CCCN(c2ccc(C(F)(F)F)cn2)C1` (configuration not stated), the Potency is reported as inconclusive [activator, single point]. With `O=C(NN1C(=O)/C(=C/c2cccnc2)SC1=S)C(c1ccccc1)c1ccccc1` the Potency was active: 13 µM. With `CCOC(=O)C1(CCOc2ccccc2)CCN(Cc2cccc(OCCO)c2)CC1` the Potency was inconclusive [activator, single point]. In the case of `CCN(CC)S(=O)(=O)c1cccc(NC(=O)CN(C)Cc2cccc(OC)c2)c1`, the Potency is reported as inconclusive [activator, full curve, poor fit]. For `CCOC(=O)c1ccc(N2C=C(C(=O)OC)C(c3cccc(O)c3)C(C(=O)OC)=C2)cc1`, the Potency was inconclusive [activator, single point]. For `Cc1cccc(OCc2nnc(SCC(=O)N(C(C)C)C(C)C)n2Cc2ccco2)c1C`, the Potency was inconclusive [activator, full curve]. With `CCOC(=O)c1[nH]c(C)c(C(=O)N2CCCC(Nc3ccc(C)c(C)c3)C2)c1C` (configuration not stated) the “activity, positive = re-replication” value was inactive: -0.589%. In the case of `COc1ccc(C(=O)Nc2cc(C)nn2-c2cccc(F)c2)cc1OC`, the Potency is reported as inconclusive [activator, single point]. In the case of `O=C(O)c1cc(-c2ccc3c(c2)OCO3)nc2ccc(Cl)cc12`, the Potency is reported as inconclusive [activator, full curve, poor fit].
